{"source": "the supplement of paper PMC6828730", "note": "Where a name gives a salt, the structure may show the parent alone. Some of the results follow. Single values are uncertain, as repeats are few or missing.", "data": [{"tested_on": "hiPSC-derived cardiomyocytes", "assay": "time to death of most cells in well after compound addition (days); higher = less cardiotoxic; extreme values may be limits of the assay", "conditions": "screen: 2; 10 µM", "values": [{"smiles": "Cc1ccc2nc(NCCN)c3ncc(C)n3c2c1", "time to death of most cells in well": "> 7"}, {"smiles": "CCCCCCCCc1ccc(CCC(N)(CO)CO)cc1", "note": "[Fingolimod (FTY720) HCl]", "time to death of most cells in well": 1}, {"smiles": "Oc1ccc2ccccc2c1SSc1c(O)ccc2ccccc12", "time to death of most cells in well": 1.5}, {"smiles": "O=C(O)CCC(=O)Nc1ccc(Br)cn1", "note": "[Bikinin]", "time to death of most cells in well": 3.5}, {"smiles": "C[C@@H]1COCCN1c1cc(C2([S@](C)(=N)=O)CC2)nc(-c2cc[nH]c3nccc2-3)n1", "time to death of most cells in well": "> 7"}, {"smiles": "CN1CC[C@H](c2c(O)cc(O)c3c(=O)cc(-c4ccccc4Cl)oc23)[C@H](O)C1", "note": "[Flavopiridol HCl]", "time to death of most cells in well": 3}, {"smiles": "Cc1cc([C@@H](C)Nc2ccccc2C(=O)O)c2nc(N3CCOCC3)cc(=O)n2c1", "time to death of most cells in well": 5.5}, {"smiles": "O=C(c1cccc(Cl)c1F)N1CCN(Cc2cccc(Nc3nccs3)n2)CC1", "time to death of most cells in well": 5}, {"smiles": "CCOc1cc(C(=O)N2CCC(N3CCN(C)CC3)CC2)ccc1Nc1ncc2c(n1)N(C1CCCC1)c1ccccc1C(=O)N2C", "time to death of most cells in well": 1}, {"smiles": "CCc1ccc(/C=C2/SC(=S)NC2=O)cc1", "time to death of most cells in well": 3.5}, {"smiles": "COc1cc2c(Nc3ccc(NC(=O)c4ccccc4)cc3)ncnc2cc1OCCCN1CCOCC1", "time to death of most cells in well": 1.5}, {"smiles": "CC(C)(C)c1cnc(CSc2cnc(NC(=O)C3CCNCC3)s2)o1", "time to death of most cells in well": 1}, {"smiles": "CN1CCCN(C(=O)c2cccc(-c3ccc(/C=C4/C(=O)Nc5ccc(Cl)cc54)o3)c2)CC1", "time to death of most cells in well": 0.5}, {"smiles": "Cc1ccc(-n2nc(C(C)(C)C)cc2NC(=O)Nc2ccc(OCCN3CCOCC3)c3ccccc23)cc1", "note": "[Doramapimod (BIRB 796)]", "time to death of most cells in well": "> 7"}, {"smiles": "COc1cc(Nc2nc3ccccc3nc2NS(=O)(=O)c2ccc(NC(=O)c3ccc(C)c(OC)c3)cc2)cc(OC)c1", "time to death of most cells in well": 6.5}, {"smiles": "Cc1cc(NC(=O)c2cccc(NC(=O)/C=C/CN(C)C)c2)ccc1Nc1nccc(-c2cccnc2)n1", "time to death of most cells in well": 5.5}, {"smiles": "O=C(NCCO)c1cccc(-c2cc(Nc3ccc(OC(F)(F)F)cc3)ncn2)c1", "time to death of most cells in well": 3}, {"smiles": "O=C(NCCCNc1nc(Nc2cccc(NC(=O)N3CCCC3)c2)ncc1I)c1cccs1", "time to death of most cells in well": "> 7"}, {"smiles": "CN(C)S(=O)(=O)c1ccc2c(c1)/C(=C/c1cc3c([nH]1)CCCC3)C(=O)N2", "time to death of most cells in well": "> 7"}, {"smiles": "CCN1CCN(Cc2ccc(Nc3ncc(F)c(-c4cc(F)c5nc(C)n(C(C)C)c5c4)n3)nc2)CC1", "time to death of most cells in well": 0.5}, {"smiles": "O=C(NCc1ccccc1)c1csc(Nc2ccncn2)n1", "note": "[Thiazovivin]", "time to death of most cells in well": 3}, {"smiles": "O=C(Nc1cccnc1)c1cc(-c2ccnc(F)c2)ccc1OCc1ccccc1", "time to death of most cells in well": "> 7"}, {"smiles": "Cn1cnc2c(F)c(Nc3ccc(Br)cc3Cl)c(C(=O)NOCCO)cc21", "note": "[Selumetinib (AZD6244)]", "time to death of most cells in well": "> 7"}, {"smiles": "O=c1[nH]c2ccc(Cl)cc2c(N[C@@H]2CN3CCC2CC3)c1-c1nc2ccccc2[nH]1", "time to death of most cells in well": 4}, {"smiles": "N#CC(=C(/N)Sc1ccccc1N)/C(C#N)=C(\\N)Sc1ccccc1N", "time to death of most cells in well": 6}, {"smiles": "O=C(O)[C@]1(Cc2cccc(Nc3nccs3)n2)CC[C@@H](Oc2cccc(Cl)c2F)CC1", "time to death of most cells in well": "> 7"}, {"smiles": "COc1cc2ncnc(Oc3cccc(NC(=O)Nc4cc(C(C)(C)C(F)(F)F)on4)c3)c2cc1OC", "time to death of most cells in well": 6.5}, {"smiles": "O=c1ncn2nc(Sc3ccc(F)cc3F)ccc2c1-c1c(Cl)cccc1Cl", "time to death of most cells in well": 2}, {"smiles": "Cc1ccccc1-n1c(Cn2nc(-c3cccc(O)c3)c3c(N)ncnc32)nc2cccc(C)c2c1=O", "time to death of most cells in well": "> 7"}, {"smiles": "CN1CCN(c2cccc(Nc3nc4c(-c5ccc(S(C)(=O)=O)cc5)cccn4n3)c2)CC1", "time to death of most cells in well": "> 7"}, {"smiles": "COc1cc(OC)c(/C=C/S(=O)(=O)Cc2ccc(OC)c(NCC(=O)O)c2)c(OC)c1", "time to death of most cells in well": 3}, {"smiles": "Nc1ncnc2c1c(-c1cccc(OCc3ccccc3)c1)cn2C1CC(CN2CCC2)C1", "note": "(stereo unspecified)", "time to death of most cells in well": 2.5}, {"smiles": "CCCCOc1c(C(=O)c2c(F)cc(C)cc2F)c[nH]c2nncc1-2", "time to death of most cells in well": 4}, {"smiles": "NC(=O)Nc1sc(-c2ccc(F)cc2)cc1C(N)=O", "time to death of most cells in well": "> 7"}, {"smiles": "CNC(=O)c1c(F)cccc1Nc1nc(Nc2cc3c(cc2OC)CCN3C(=O)CN(C)C)nc2[nH]ccc12", "time to death of most cells in well": 4}, {"smiles": "Cc1c(NC(=O)c2ccc(C(C)(C)C)cc2)cccc1-c1cn(C)c(=O)c(Nc2ccc(C(=O)N3CCOCC3)cc2)n1", "time to death of most cells in well": 2}, {"smiles": "Cc1c(F)cc(C(=O)NC2CC2)cc1-c1ccc(C(=O)NCC(C)(C)C)cn1", "time to death of most cells in well": 5}, {"smiles": "COc1ccc2c(c1)/C(=C/c1cnc[nH]1)C(=O)N2", "time to death of most cells in well": "> 7"}]}, {"tested_on": "hiPSC-derived cardiomyocytes", "assay": "time to death of most cells in well after compound addition (days); higher = less cardiotoxic; extreme values may be limits of the assay", "conditions": "screen: 3; 10 µM", "values": [{"smiles": "Cc1ccc2nc(NCCN)c3ncc(C)n3c2c1", "time to death of most cells in well": "> 7"}, {"smiles": "CCCCCCCCc1ccc(CCC(N)(CO)CO)cc1", "note": "[Fingolimod (FTY720) HCl]", "time to death of most cells in well": 2}, {"smiles": "Oc1ccc2ccccc2c1SSc1c(O)ccc2ccccc12", "time to death of most cells in well": 3}, {"smiles": "O=C(O)CCC(=O)Nc1ccc(Br)cn1", "note": "[Bikinin]", "time to death of most cells in well": "> 7"}, {"smiles": "C[C@@H]1COCCN1c1cc(C2([S@](C)(=N)=O)CC2)nc(-c2cc[nH]c3nccc2-3)n1", "time to death of most cells in well": "> 7"}, {"smiles": "CN1CC[C@H](c2c(O)cc(O)c3c(=O)cc(-c4ccccc4Cl)oc23)[C@H](O)C1", "note": "[Flavopiridol HCl]", "time to death of most cells in well": 5.5}, {"smiles": "Cc1cc([C@@H](C)Nc2ccccc2C(=O)O)c2nc(N3CCOCC3)cc(=O)n2c1", "time to death of most cells in well": "> 7"}, {"smiles": "O=C(c1cccc(Cl)c1F)N1CCN(Cc2cccc(Nc3nccs3)n2)CC1", "time to death of most cells in well": "> 7"}, {"smiles": "CCOc1cc(C(=O)N2CCC(N3CCN(C)CC3)CC2)ccc1Nc1ncc2c(n1)N(C1CCCC1)c1ccccc1C(=O)N2C", "time to death of most cells in well": 1.5}, {"smiles": "CCc1ccc(/C=C2/SC(=S)NC2=O)cc1", "time to death of most cells in well": "> 7"}, {"smiles": "COc1cc2c(Nc3ccc(NC(=O)c4ccccc4)cc3)ncnc2cc1OCCCN1CCOCC1", "time to death of most cells in well": "> 7"}, {"smiles": "CC(C)(C)c1cnc(CSc2cnc(NC(=O)C3CCNCC3)s2)o1", "time to death of most cells in well": 5.5}, {"smiles": "CN1CCCN(C(=O)c2cccc(-c3ccc(/C=C4/C(=O)Nc5ccc(Cl)cc54)o3)c2)CC1", "time to death of most cells in well": 0}, {"smiles": "Cc1ccc(-n2nc(C(C)(C)C)cc2NC(=O)Nc2ccc(OCCN3CCOCC3)c3ccccc23)cc1", "note": "[Doramapimod (BIRB 796)]", "time to death of most cells in well": "> 7"}, {"smiles": "COc1cc(Nc2nc3ccccc3nc2NS(=O)(=O)c2ccc(NC(=O)c3ccc(C)c(OC)c3)cc2)cc(OC)c1", "time to death of most cells in well": "> 7"}, {"smiles": "Cc1cc(NC(=O)c2cccc(NC(=O)/C=C/CN(C)C)c2)ccc1Nc1nccc(-c2cccnc2)n1", "time to death of most cells in well": 4}, {"smiles": "O=C(NCCO)c1cccc(-c2cc(Nc3ccc(OC(F)(F)F)cc3)ncn2)c1", "time to death of most cells in well": "> 7"}, {"smiles": "O=C(NCCCNc1nc(Nc2cccc(NC(=O)N3CCCC3)c2)ncc1I)c1cccs1", "time to death of most cells in well": "> 7"}, {"smiles": "CN(C)S(=O)(=O)c1ccc2c(c1)/C(=C/c1cc3c([nH]1)CCCC3)C(=O)N2", "time to death of most cells in well": "> 7"}, {"smiles": "CCN1CCN(Cc2ccc(Nc3ncc(F)c(-c4cc(F)c5nc(C)n(C(C)C)c5c4)n3)nc2)CC1", "time to death of most cells in well": 2.5}, {"smiles": "O=C(NCc1ccccc1)c1csc(Nc2ccncn2)n1", "note": "[Thiazovivin]", "time to death of most cells in well": "> 7"}, {"smiles": "O=C(Nc1cccnc1)c1cc(-c2ccnc(F)c2)ccc1OCc1ccccc1", "time to death of most cells in well": "> 7"}, {"smiles": "Cn1cnc2c(F)c(Nc3ccc(Br)cc3Cl)c(C(=O)NOCCO)cc21", "note": "[Selumetinib (AZD6244)]", "time to death of most cells in well": "> 7"}, {"smiles": "O=c1[nH]c2ccc(Cl)cc2c(N[C@@H]2CN3CCC2CC3)c1-c1nc2ccccc2[nH]1", "time to death of most cells in well": 6.5}, {"smiles": "N#CC(=C(/N)Sc1ccccc1N)/C(C#N)=C(\\N)Sc1ccccc1N", "time to death of most cells in well": "> 7"}, {"smiles": "O=C(O)[C@]1(Cc2cccc(Nc3nccs3)n2)CC[C@@H](Oc2cccc(Cl)c2F)CC1", "time to death of most cells in well": "> 7"}, {"smiles": "COc1cc2ncnc(Oc3cccc(NC(=O)Nc4cc(C(C)(C)C(F)(F)F)on4)c3)c2cc1OC", "time to death of most cells in well": "> 7"}, {"smiles": "O=c1ncn2nc(Sc3ccc(F)cc3F)ccc2c1-c1c(Cl)cccc1Cl", "time to death of most cells in well": 3}, {"smiles": "Cc1ccccc1-n1c(Cn2nc(-c3cccc(O)c3)c3c(N)ncnc32)nc2cccc(C)c2c1=O", "time to death of most cells in well": "> 7"}, {"smiles": "CN1CCN(c2cccc(Nc3nc4c(-c5ccc(S(C)(=O)=O)cc5)cccn4n3)c2)CC1", "time to death of most cells in well": "> 7"}, {"smiles": "COc1cc(OC)c(/C=C/S(=O)(=O)Cc2ccc(OC)c(NCC(=O)O)c2)c(OC)c1", "time to death of most cells in well": "> 7"}, {"smiles": "Nc1ncnc2c1c(-c1cccc(OCc3ccccc3)c1)cn2C1CC(CN2CCC2)C1", "note": "(stereo unspecified)", "time to death of most cells in well": "> 7"}, {"smiles": "CCCCOc1c(C(=O)c2c(F)cc(C)cc2F)c[nH]c2nncc1-2", "time to death of most cells in well": 5.5}, {"smiles": "NC(=O)Nc1sc(-c2ccc(F)cc2)cc1C(N)=O", "time to death of most cells in well": "> 7"}, {"smiles": "CNC(=O)c1c(F)cccc1Nc1nc(Nc2cc3c(cc2OC)CCN3C(=O)CN(C)C)nc2[nH]ccc12", "time to death of most cells in well": 2.5}, {"smiles": "Cc1c(NC(=O)c2ccc(C(C)(C)C)cc2)cccc1-c1cn(C)c(=O)c(Nc2ccc(C(=O)N3CCOCC3)cc2)n1", "time to death of most cells in well": 3}, {"smiles": "Cc1c(F)cc(C(=O)NC2CC2)cc1-c1ccc(C(=O)NCC(C)(C)C)cn1", "time to death of most cells in well": "> 7"}, {"smiles": "COc1ccc2c(c1)/C(=C/c1cnc[nH]1)C(=O)N2", "time to death of most cells in well": "> 7"}]}]}
